Results reported in ChEMBL document CHEMBL4888484, “Replenishing the malaria drug discovery pipeline: Screening and hit evaluation of the MMV Hit Generation Library 1 (HGL1) against asexual blood stage Plasmodium falciparum ,using a nano luciferase reporter read-out” (2022).
Hit rate of the full screen: of about 4,800 compounds, about 420 (8.8%) showed an effect of 50% or more. The list shows a part of the results.

Test system: Plasmodium falciparum
Assay: Confirmatory screen in NF54 nanoGlo assay, in single point, at 2uM, 72h
Assay type: functional, Erythrocyte
Settings: timepoint 72 hour

Row | Compound | % Inhibition
1 | COc1cc(CNCCc2ccccc2F)ccc1OCc1nnnn1-c1ccc(C)cc1 | -2%
2 | CCC(C)(CC)[C@@](O)(C#CC[N+]1(Cc2ccccc2)CCCCC1)c1ccccc1 | 7%
3 | Nc1nc2c(s1)CN(CCc1ccccc1)CC2 | 38%
4 | Cc1cc(NC(=O)c2ccc(COc3ccc4ccccc4c3)o2)nn1C | -3%
5 | CCNC(=O)C(=O)NCc1ccc(Cl)cc1 | 2%
6 | NC(=O)c1ccccc1NC(=O)C1CCN(c2cc(C3CC3)ncn2)CC1 | 53%
7 | CN(Cc1ccccc1)C(=O)C1CC=CCC1C(=O)Nc1ncc(-c2ccc3c(c2)OCO3)n1C (stereo not drawn) | 8%
8 | Cc1ccc(-c2cc3c(N4CCCN(C)CC4)nccn3n2)c(C)c1 | 4%
9 | COc1ccc(OCc2nc3cc4c(cc3cc2C(=O)O)OCO4)cc1 | 2%
10 | CO[C@@H](CNc1nc(C)c(S(N)(=O)=O)s1)c1ccc(F)cc1 | -4%
11 | CN(CCCNC(=O)Cc1n[nH]c(=O)c2ccccc12)Cc1ccccc1 | -2%
12 | CCS(=O)(=O)c1cccc(N[C@@H](C)COC)c1 | 0%
13 | CCN1CCN(c2cccc(NC(=O)c3cc(F)cc4c(=O)c5cc(F)ccc5[nH]c34)c2)CC1 | 97%
14 | CNC(=O)c1cc(NS(=O)(=O)N2CCCCCC2)ccc1F | -8%
15 | COc1ccccc1C(=O)NC1=C(C)Nc2ncnn2[C@H]1c1c[nH]c2ccccc12 | -5%
16 | C[C@@H]1Oc2ccc(-c3csc(NC(=O)c4ccccc4Cl)n3)cc2N(C)C1=O | 6%
17 | C[C@H](NC(=O)c1cc(F)cc(F)c1)c1ccccc1NC(=O)c1cc(F)cc(F)c1 | -2%
18 | CC1CCC2(CC1)N=C(c1ccccc1)C(=O)N2CC(=O)N[C@H]1CCc2ccccc21 (stereo partly drawn) | -3%
19 | C[C@]1(CCc2ccc(O)cc2)Nc2ccccc2-c2nc(=O)c(-c3ccc(F)cc3)nn21 | 8%
20 | Cc1ccc(C)c(C(=O)Cn2nc3ccc(-c4ccc(Cl)cc4)nn3c2=O)c1 | -7%
21 | O=C(NC1(C(F)(F)F)Oc2cc(Cl)c(Cl)cc2O1)N1CCCC1 | -11%
22 | Cc1oc(C(=O)N2CC3(CCCC3)c3ccccc32)cc1S(=O)(=O)N(C)C | 4%
23 | O=C(Nc1ccccc1CN1CCc2ccccc21)NC1CCC(O)CC1 (stereo not drawn) | -2%
24 | Cc1ccnc2nc(C(=O)N(C)c3ccc(Cl)cn3)nn12 | 16%
25 | Cn1c(-c2ccc(-c3ccccc3)cc2)cn2cc(-c3cccc(Br)c3)nc12 | 0%
26 | CCN(C[C@H]1CCCO1)C(=O)c1cnc(Cc2ccccc2)s1 | -16%

Row | Compound | % Inhibition
27 | CCN(C(C)=O)c1nc(CN2C(=O)N[C@](C)(c3ccc(F)cc3Br)C2=O)cs1 | 4%
28 | CCn1cnc2c(N3CCC[C@H](c4ccncc4)C3)ncnc21 | 68%
29 | CCN(CCN(C)C)C(=O)c1cccc(-c2ccc3nccc(N)c3c2)c1 | 70%
30 | CC(C)c1cnc(NCCCC[C@H]2CCCO2)nc1 | -2%
31 | Cc1cc(C)n(C(=O)CNC(=O)c2cccs2)n1 | -11%
32 | Cc1c(C(C)C)c(=O)n(-c2ccc(S(=O)(=O)N3CCN(c4nc5ccccc5nc4-c4ccccc4)CC3)cc2)n1C | -20%
33 | O=C(NCc1ccncc1)c1ccco1 | -11%
34 | Cc1ccccc1Cn1cnc2c1c(=O)n(C1CCCCC1)c(=O)n2-c1ccccc1Cl | 78%
35 | c1ccc(N2CCN(c3nc(N4CCCC4)c4nccnc4n3)CC2)cc1 | 3%
36 | Cc1ccc(Nc2c(C(=O)NCc3ccc(F)cc3)cnc3c2c(C)nn3C)cc1 | -3%
37 | CCc1ccc([C@H]2NCCc3[nH]cnc32)nc1 | 29%
38 | O=C(C1CN(c2ncc(C(F)(F)F)cc2Cl)C1)N1CCCC1 | 1%
39 | CCOC(=O)c1ccc(N2CCN(Cc3ccccc3)CC2)c(NC(=O)COc2ccc(Cl)cc2C)c1 | -4%
40 | NCc1cccc(C(=O)N2CCc3cc4ccc3[C@@H]2c2cccc(c2)OCCCNC(=O)c2cc(ccc2O)O4)c1 | 93%
41 | Cc1cc(N2C(=O)CCS2(=O)=O)cc(C)c1S(=O)(=O)NCc1ccccn1 | 2%
42 | CCOc1c(CNCCN(C)C)cc(Br)cc1OC | -3%
43 | Cc1onc(-c2ccccc2)c1C(=O)c1c[nH]c(C(=O)NCc2ccncc2)c1 | -4%
44 | COc1c[nH]c(C(=O)NC2CCN(Cc3ccccc3)CC2)cc1=O | 5%
45 | O=C(CCC(=O)c1ccccc1)NC1CCC(O)CC1 (stereo not drawn) | 1%
46 | CCN(CC)CCn1c2ccccc2n2cc(-c3ccc(Br)cc3)nc12 | 59%
47 | Cc1cc(C)nc(NCCC[C@H]2CCCCO2)n1 | -6%
48 | Cc1ccc(C(=O)NCCn2cnc3ccccc3c2=O)cn1 | -9%
49 | COc1ccc(NC(=O)N2CC[C@H](CC(=O)NCc3ccccc3)C2)cc1OC | -10%
50 | CCOc1ccc(-c2ccnc3c(C(=O)NCc4ccc5c(c4)OCO5)cnn23)cc1 | -3%
51 | COCCOc1ccc2c(n1)CCN(C(=O)Nc1ccccc1C)C2 | -10%
52 | CCOC(=O)c1ncc(Cl)c(C#N)c1Cl | -6%

Row | Compound | % Inhibition
53 | CC1=C[C@@H](CNCc2cccnc2)[C@H](C(C)C)C[C@H]1Cc1nc2cccnc2[nH]1 | 11%
54 | CCCc1nn(CC(N)=O)c(CCC)c1CC | -10%
55 | C[C@H](Oc1ccccc1)C(=O)Nc1cccc(-c2nnco2)c1 | -11%
56 | Cc1ccn(Cc2nc(N)nc(N(C)C)n2)c(=O)c1C#N | -2%
57 | CC(C)c1ccc(NC(=O)CCC(=O)N2CCc3ccccc3C2)cc1 | -2%
58 | Cc1nc(-c2ccc3[nH]c(=O)[nH]c3c2)cs1 | 6%
59 | Cc1noc([C@H]2CCCN(C(=O)c3cc4c(s3)CCC4)C2)n1 | -10%
60 | COc1ccc(CCc2n[nH]c(NC(=O)CCc3c[nH]c4ccccc34)n2)cc1OC | 14%
61 | CC(=O)c1ccc(N2CC[S+]([O-])CC2)nc1 | -6%
62 | Cc1nc(CNc2cnc3cc(Cl)c(Cl)cc3n2)no1 | 2%
63 | O=C(Nc1ccc(N2CCn3c(nc4cc(Cl)ccc43)C2)cc1)NC1CCCCC1 | -5%
64 | O=C(NCc1cccnc1Oc1ccccc1)c1cccnc1 | 5%
65 | O=C(CN1CCC(c2ccnn2CCO)CC1)N(Cc1ccccc1)C1CC1 | -3%
66 | COC(=O)C1(C)CC2(C)CC(C)(C1)C(=O)N(C)C2=O (stereo not drawn) | -7%
67 | CCn1cc(C#N)c(=O)c2cc(F)c(N3CCN(Cc4ccccc4)CC3)cc21 | 69%
68 | O=C([C@@H]1CCCN1c1ncc(C(F)(F)F)cc1Cl)N1Cc2ccccc2C1 | -17%
69 | COC(=O)CN(CCC(F)(F)F)c1nc(C)nc(N(C)C)n1 | -8%
70 | Cc1nn(Cc2ccccc2)c(=O)n1-c1ccc(OCc2ccccc2)cc1 | -19%
71 | CCOc1cccc(Cn2cc(Br)ccc2=O)n1 | -5%
72 | COc1ccc(NC(=O)[C@@H](C)C2CCOCC2)cc1 | -6%
73 | COc1c(C)cc(C(=O)[C@H]2CCCN(c3cc(N)ncn3)C2)cc1C | 32%
74 | Cn1cc(N)c(Oc2ccc3c(c2)OCO3)n1 | 0%
75 | O=C(C[C@H]1CCN(C(=O)c2ccc(F)cc2)C1)NC1CC1 | -11%
76 | Cn1ccc(NC(=O)c2cccc3ccccc23)n1 | -8%
77 | COc1ccc(OCC(=O)Nc2ccc(N3CCn4c(nc5cc(Cl)ccc54)C3)cc2OC)cc1 | -7%
78 | CN(C(=O)Cn1cnc2nc(N3CCC(C(=O)NC4CC4)CC3)sc2c1=O)c1ccccc1 | -14%

Row | Compound | % Inhibition
79 | C[C@@H]1CN(c2ccc(N)cn2)C[C@H](C)O1 | -11%
80 | CC1CN(C)C(C)c2c1oc1ccc(N)cc21 (stereo not drawn) | -5%
81 | CN1C[C@@H](C(=O)Nc2csc(N3CCCCC3)n2)CC1=O | -7%
82 | Cc1ccc(-n2ccc3nc(N4CCc5ccccc5C4)ncc3c2=O)cc1C | -19%
83 | Cn1cc(CNc2ccc3c[nH]nc3c2)cn1 | -6%
84 | Cc1ccc(OCC(=O)Nc2cc(C)nn2-c2nc3c(cnn3-c3ccc(C)c(C)c3)c(=O)[nH]2)cc1 | 65%
85 | c1ccc(C2CCC(N3CCN(Cc4ccco4)CC3)CC2)cc1 (stereo not drawn) | 3%
86 | COc1ccc(-c2cn3cc(C)nc3n2C)cc1 | -9%
87 | O=C(Nc1ccccc1-n1ccnc1)c1cnccn1 | -15%
88 | Cc1ccc(/N=C(\N)C(Cl)(Cl)Cl)c(C)c1 | -2%
89 | CCn1c(C)c(C)c2cc(C(=O)Nc3cccc(S(=O)(=O)N4CCOCC4)c3)ccc21 | 0%
90 | C[C@H](NC(=O)c1cocn1)c1ccccc1NC(=O)c1cocn1 | -10%
91 | Cc1ccc(S(=O)(=O)N2CC(C)N(C(=O)N3CCOCC3)C2C)cc1 (stereo not drawn) | -2%
92 | Cc1ccc(/C=C(\C(=O)NC[C@H]2CCCO2)n2ccccc2=O)cc1 | -3%
93 | O=C(CCC(=O)N1CCCCCC1)NCc1cccs1 | 7%
94 | Cc1nnc(N2CC[C@H](c3nnc[nH]3)C2)s1 | -4%
95 | COc1cccc([C@H]2CC(=O)Nc3nc(N4CCCCC4)sc32)c1 | 6%
96 | CCOc1ccc(-c2cc3c(=O)n(CCC(=O)N4CCCC4)ccn3n2)cc1 | -9%
97 | Cc1nn(C)c(C)c1CNc1ccc2c(c1)CCC(=O)N2 | -10%
98 | O=S(=O)(NC1CC(c2ccc(F)c(Cl)c2)C1)C1CC1 (stereo not drawn) | 2%
99 | CCN1C(=O)COc2ccc(-c3csc(NC(=O)[C@@H]4CCCO4)n3)cc21 | -1%
100 | CN1CCC[C@H](c2nnc3sc(-c4ccc(OCc5ccccc5)cc4)nn23)C1 | -3%
101 | N#Cc1ccccc1OCc1csc(-c2ccccn2)n1 | -4%
102 | COc1ccccc1CN1COc2cc3c(cc2C1)OCO3 | 22%
103 | COc1ccc(-c2cc3n(n2)C[C@@](C)(C(=O)NCc2ccccc2OC)N(c2cccc(OC)c2)C3=O)cc1 | 49%
